Data: the supplement of paper PMC8728848
This is one part of the list.

How the values were obtained:
Experiment in all cases: glycan array binding signal (z-score within array); higher = stronger binding
Conditions in all cases: glycan notation: IUPAC condensed, linker removed
Fuc(a1-2)Gal = molecular target: Fuc(a1-2)Gal
Summary of the method: (§1)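 Glycan array data came from 3228 arrays in the Consortium for Functional Glycomics database, and only arrays with an available protein sequence were kept. Glycan names were put into IUPAC-condensed notation, and columns mapping to the same glycan were averaged. The binding signal is a within-array Z-score, averaged across arrays of one protein sequence run at different concentrations or buffers and across linkers. A negative Z-score can be read as non-binding.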

Fuc(a1-2)Gal(b1-3)GalNAc = molecular target: Fuc(a1-2)Gal(b1-3)GalNAc
Summary of the method: as §1

[1] = molecular target: Fuc(a1-2)Gal(b1-3)GalNAc(b1-3)Gal
Summary of the method: as §1

[2] = molecular target: Fuc(a1-2)Gal(b1-3)GalNAc(b1-3)Gal(a1-4)Gal(b1-4)Glc
Summary of the method: as §1

[3] = molecular target: Fuc(a1-2)Gal(b1-3)GalNAc(b1-3)Gal(b1-4)Glc
Summary of the method: as §1

[4] = molecular target: Fuc(a1-2)Gal(b1-3)GalNAc(b1-4)[Neu5Ac(a2-3)]Gal(b1-4)Glc
Summary of the method: as §1

[5] = molecular target: Fuc(a1-2)Gal(b1-3)[Fuc(a1-4)]GlcNAc
Summary of the method: as §1

Fuc(a1-2)Gal(b1-4)Glc = molecular target: Fuc(a1-2)Gal(b1-4)Glc
Summary of the method: as §1

Fuc(a1-2)Gal(b1-4)GlcNAc = molecular target: Fuc(a1-2)Gal(b1-4)GlcNAc
Summary of the method: as §1

[6] = molecular target: Fuc(a1-2)Gal(b1-4)GlcNAc(b1-3)Gal(b1-4)GlcNAc
Summary of the method: as §1

[7] = molecular target: Fuc(a1-2)Gal(b1-4)GlcNAc(b1-3)Gal(b1-4)GlcNAc(b1-3)Gal(b1-4)GlcNAc
Summary of the method: as §1

[8] = molecular target: Fuc(a1-2)Gal(b1-4)[Fuc(a1-3)]GalNAc(b1-3)Gal(b1-4)[Fuc(a1-3)]GlcNAc
Summary of the method: as §1

[9] = molecular target: Fuc(a1-2)Gal(b1-4)[Fuc(a1-3)]GalNAc(b1-3)Gal(b1-4)[Fuc(a1-3)]GlcNAc(b1-3)Gal(b1-4)[Fuc(a1-3)]GalNAc
Summary of the method: as §1

[10] = molecular target: Fuc(a1-2)Gal(b1-4)[Fuc(a1-3)]GlcNAc
Summary of the method: as §1

Fuc(a1-2)GlcNAc = molecular target: Fuc(a1-2)GlcNAc
Summary of the method: as §1

Fuc(a1-2)[Gal(a1-3)]Gal = molecular target: Fuc(a1-2)[Gal(a1-3)]Gal
Summary of the method: as §1

[11] = molecular target: Fuc(a1-2)[Gal(a1-3)]Gal(b1-3)GlcNAc
Summary of the method: as §1

[12] = molecular target: Fuc(a1-2)[Gal(a1-3)]Gal(b1-4)Glc
Summary of the method: as §1

[13] = molecular target: Fuc(a1-2)[Gal(a1-3)]Gal(b1-4)GlcNAc
Summary of the method: as §1

[14] = molecular target: Fuc(a1-2)[Gal(a1-3)]Gal(b1-4)[Fuc(a1-3)]GlcNAc
Summary of the method: as §1

[15] = molecular target: Fuc(a1-2)[Gal(a1-4)]Gal(b1-4)GalNAc
Summary of the method: as §1

[16] = molecular target: Fuc(a1-2)[GalNAc(a1-3)]Gal
Summary of the method: as §1

[17] = molecular target: Fuc(a1-2)[GalNAc(a1-3)]Gal(b1-3)GlcNAc
Summary of the method: as §1

[18] = molecular target: Fuc(a1-2)[GalNAc(a1-3)]Gal(b1-4)Glc
Summary of the method: as §1

[19] = molecular target: Fuc(a1-2)[GalNAc(a1-3)]Gal(b1-4)GlcNAc
Summary of the method: as §1

[20] = molecular target: Fuc(a1-2)[GalNAc(a1-3)]Gal(b1-4)[Fuc(a1-3)]GlcNAc
Summary of the method: as §1

[21] = molecular target: Fuc(a1-2)[GalNAc(a1-4)]Gal(b1-4)GlcNAc
Summary of the method: as §1

Fuc(a1-3)GlcNAc = molecular target: Fuc(a1-3)GlcNAc
Summary of the method: as §1

[22] = molecular target: Fuc(a1-3)[Gal(b1-4)]GlcNAc
Summary of the method: as §1

[23] = molecular target: Fuc(a1-3)[Gal(b1-4)]GlcNAc(b1-4)Gal(b1-4)[Fuc(a1-3)]GlcNAc
Summary of the method: as §1

[24] = molecular target: Fuc(a1-3)[Gal(b1-4)]GlcNAc(b1-4)Gal(b1-4)[Fuc(a1-3)]GlcNAc(b1-4)Gal(b1-4)[Fuc(a1-3)]GlcNAc
Summary of the method: as §1

[25] = molecular target: Fuc(a1-3)[Gal3S(b1-4)]GlcNAc
Summary of the method: as §1

[26] = molecular target: Fuc(a1-3)[GalNAc(b1-4)]Gal(b1-4)GlcNAc
Summary of the method: as §1

Fuc(a1-4)GlcNAc = molecular target: Fuc(a1-4)GlcNAc
Summary of the method: as §1

Fuc(b1-3)GlcNAc = molecular target: Fuc(b1-3)GlcNAc
Summary of the method: as §1

Gal(a1-2)Gal = molecular target: Gal(a1-2)Gal
Summary of the method: as §1

Gal(a1-3)Gal = molecular target: Gal(a1-3)Gal
Summary of the method: as §1

Gal(a1-3)Gal(b1-3)Glc = molecular target: Gal(a1-3)Gal(b1-3)Glc
Summary of the method: as §1

Gal(a1-3)Gal(b1-3)GlcNAc = molecular target: Gal(a1-3)Gal(b1-3)GlcNAc
Summary of the method: as §1

Gal(a1-3)Gal(b1-4)GlcNAc = molecular target: Gal(a1-3)Gal(b1-4)GlcNAc
Summary of the method: as §1

[27] = molecular target: Gal(a1-3)Gal(b1-4)[Fuc(a1-3)]GalNAc
Summary of the method: as §1

Gal(a1-3)GlcNAc = molecular target: Gal(a1-3)GlcNAc
Summary of the method: as §1

[28] = molecular target: Gal(a1-3)[Gal(a1-4)]Gal(b1-4)GlcNAc
Summary of the method: as §1

Gal(a1-4)Gal(b1-4)Gal = molecular target: Gal(a1-4)Gal(b1-4)Gal
Summary of the method: as §1

Gal(a1-4)Gal(b1-4)GalNAc = molecular target: Gal(a1-4)Gal(b1-4)GalNAc
Summary of the method: as §1

B1: Tulipa lectin C-1 (Tulipa hybrid) (protein)
chain: MGMALVVALAVALASTVAGQQNVLLSGNTLANEESLSYGSVKFIMQNDCNLVLYGGGFQSNTASNGKKCTLTLNNNGHLIINDGLTGRVVWRNSNAQNPVGRYAAVLRPAPGTADVAIYGPAIWSTNDEFSYQESGVVPHKLGRETPNLPRMQNLLFSGQTLYGTDGMLSSNDGSTTFELSKCQLSLSLGNEVKWKVAPTVENGKENYCHVRLDHRGHLSLLNDDNVVLFRSIPTNGVEPPIGDYVLIVEKGAGYIYGPPIWNTYDNRRYKVASA
Fuc(a1-2)Gal
  glycan array binding signal (z-score): -0.214
Fuc(a1-2)Gal(b1-3)GalNAc
  glycan array binding signal (z-score): -0.198
[1]
  glycan array binding signal (z-score): -0.126
[2]
  glycan array binding signal (z-score): -0.225
[3]
  glycan array binding signal (z-score): -0.176
[4]
  glycan array binding signal (z-score): -0.217
[5]
  glycan array binding signal (z-score): -0.218
Fuc(a1-2)Gal(b1-4)Glc
  glycan array binding signal (z-score): -0.195
Fuc(a1-2)Gal(b1-4)GlcNAc
  glycan array binding signal (z-score): -0.193
[6]
  glycan array binding signal (z-score): -0.2
[7]
  glycan array binding signal (z-score): -0.218
[8]
  glycan array binding signal (z-score): -0.219
[9]
  glycan array binding signal (z-score): -0.206
[10]
  glycan array binding signal (z-score): -0.028
Fuc(a1-2)GlcNAc
  glycan array binding signal (z-score): -0.229
Fuc(a1-2)[Gal(a1-3)]Gal
  glycan array binding signal (z-score): -0.235
[11]
  glycan array binding signal (z-score): -0.231
[12]
  glycan array binding signal (z-score): -0.209
[13]
  glycan array binding signal (z-score): -0.174
[14]
  glycan array binding signal (z-score): -0.223
[15]
  glycan array binding signal (z-score): -0.225
[16]
  glycan array binding signal (z-score): -0.219
[17]
  glycan array binding signal (z-score): -0.216
[18]
  glycan array binding signal (z-score): -0.214
[19]
  glycan array binding signal (z-score): -0.16
[20]
  glycan array binding signal (z-score): -0.221
[21]
  glycan array binding signal (z-score): -0.208
Fuc(a1-3)GlcNAc
  glycan array binding signal (z-score): -0.182
[22]
  glycan array binding signal (z-score): -0.217
[23]
  glycan array binding signal (z-score): -0.221
[24]
  glycan array binding signal (z-score): -0.188
[25]
  glycan array binding signal (z-score): -0.151
[26]
  glycan array binding signal (z-score): -0.217
Fuc(a1-4)GlcNAc
  glycan array binding signal (z-score): -0.228
Fuc(b1-3)GlcNAc
  glycan array binding signal (z-score): -0.171
Gal(a1-2)Gal
  glycan array binding signal (z-score): -0.202
Gal(a1-3)Gal
  glycan array binding signal (z-score): -0.198
Gal(a1-3)Gal(b1-3)Glc
  glycan array binding signal (z-score): -0.154
Gal(a1-3)Gal(b1-3)GlcNAc
  glycan array binding signal (z-score): -0.193
Gal(a1-3)Gal(b1-4)GlcNAc
  glycan array binding signal (z-score): -0.223
[27]
  glycan array binding signal (z-score): -0.18
Gal(a1-3)GlcNAc
  glycan array binding signal (z-score): -0.21
[28]
  glycan array binding signal (z-score): -0.221
Gal(a1-4)Gal(b1-4)Gal
  glycan array binding signal (z-score): -0.099
Gal(a1-4)Gal(b1-4)GalNAc
  glycan array binding signal (z-score): -0.213
